# Test results taken from ChEMBL document CHEMBL4888484, “Replenishing the malaria drug discovery pipeline: Screening and hit evaluation of the MMV Hit Generation Library 1 (HGL1) against asexual blood stage Plasmodium falciparum ,using a nano luciferase reporter read-out” (2022).
# About 540 (0.36%) of roughly 150,000 compounds showed an effect of 50% or more. This is one part of the list.
# Test system: Plasmodium falciparum
# Assay: Primary screen in NF54 nanoGlo assay, in single point, at 2uM, 72h; a lower Z score goes with more inhibition
# Type: functional, Erythrocyte
# Conditions: timepoint 72 hour
SMILES,% Inhibition [%],Z score
CCCCNC(=O)[C@H](C)N1CC(S(C)(=O)=O)C1,-13,1.81
CC(NC(=O)C1CCCO1)c1ccccn1 (stereo unspecified),-13,1.94
CC1(C)Cc2cccc([C@H]3CC(=O)Nc4n[nH]cc43)c2O1,-18,3.38
COc1cc(CN2CC(N3CCOCC3)C2)ccc1F,5,-0.68
CCN(C)C1(CNC(=O)c2cccc(-c3ncc(F)c(NC)n3)c2)CCCC1,3,-0.53
Cc1cc(S(=O)(=O)Nc2c(C(F)F)n[nH]c2C)c(C)s1,-1,0.12
CCS(=O)(=O)c1ccc(O)c(NCc2ccoc2C)c1,-5,0.51
CCOC(=O)C1CCN([C@H]2CS(=O)(=O)C[C@@H]2S(=O)(=O)c2cc(C)ccc2OC)CC1,-9,1.21
Cc1cc(C)c(S(=O)(=O)N2CCC3(CC2)NCCN=C3NCc2ccccc2C)c(C)c1,-3,0.35
CCCNc1ncc(CN2CCc3nocc3C2)cn1,-13,1.73
Cc1nc(C(C)C)sc1C(=O)N1CC[C@@H]2OCc3cnnn3[C@@H]2C1,-6,1.23
O=S(=O)(C1CC1)N1CC2CC1CO2 (stereo unspecified),-9,1.11
C/C=C(\C)CN1CCC2(CCC(=O)N(Cc3cccnc3)C2)CC1,-21,3.88
Cn1ncc2c(N[C@@H]3CCC(=O)N[C@H]3C3CCCO3)ncnc21 (stereo partly specified),0,-0.08
Cc1cccc(Cl)c1NC(=O)N1CCN2C(=O)NC[C@H]2C1,-11,0.97
O=C1CN(C(=O)[C@@H]2CCCN2c2ccccc2)CCN1,-2,0.29
CCOC1CC1C(=O)N1CCCCCC1c1noc(-c2cnn(C)c2)n1 (stereo unspecified),-3,0.64
CCN1CCn2c(nn(CC(=O)Nc3cc(C)on3)c2=O)C1=O,-16,1.86
Cc1cc(N[C@H]2CCc3nnnn3CC2)nc(C)n1,-8,1.56
CC(CCc1ccccc1)NS(=O)(=O)CC1CCOC1 (stereo unspecified),-11,1.86
CCc1ccc(-c2nccn2-c2ccc3c(c2)OCO3)nc1,9,-1.13
C=CCCC(=O)N1CCC[C@H](Oc2ccnc(C)n2)C1,-6,1.11

SMILES,% Inhibition [%],Z score
Cc1ccc(-c2cc(C(F)(F)F)nn2-c2nc(-c3ccc(F)cc3)cs2)cc1,6,-0.93
Cn1cccc1C(=O)NCCCn1ncc2ccccc21,-5,0.66
N#CCN[C@@H](C1CCCC1)C(F)(F)F,5,-0.67
COCC(=O)Nc1ccc2c(c1)N(C)S(=O)(=O)N2C,-4,0.57
COCCc1nc(C2(c3ccccc3F)CC2)n(CC(F)(F)F)n1,-12,1.31
Cc1cc(F)cc(C(=O)NCCCNCc2cccnc2)c1,-3,0.29
O=C(NCc1ccco1)NC1CCCC1,6,-1.12
CCCn1c(=O)[nH]c2c(c1=O)C(C)(C)Cc1ccccc1-2,-7,0.78
CC(C)Cn1cncc1CNC(=O)Nc1cnns1,-4,0.69
COC(=O)N1N=C2CCCCC2C1(O)C(F)(F)F (stereo unspecified),10,-1.27
c1ccc2c(c1)C[C@H](CNC1CCOCC1)CO2,-9,1.68
O=c1ccn(-c2ccccn2)n1CCOCC(F)F,8,-0.91
O=C1c2ccccc2C(=O)N1CCn1cncn1,-17,1.93
COc1ccc([C@@H]2NC(=O)N[C@H]3OCCC[C@H]32)cc1,-10,1.14
O=C(COC1CCCCC1)Nc1ccc(-c2ccccc2)cn1,-10,1.66
CCN(C(=O)c1noc2c1CCCC2)c1cccc(C)c1,-10,1.8
COc1ccc(Cl)cc1S(=O)(=O)Cc1ccc(-c2nc(-c3ccccc3C)no2)o1,4,-0.59
CCc1nn(C)c(NC(=O)N[C@@H](CO)Cc2ccc(O)cc2)c1C,-11,1.84
O=C(NCCN1CCOCC1)c1coc(CN(CCc2c[nH]c3ccccc23)Cc2cccc(F)c2)n1,-12,2.04
CCN(CC)Cc1nc(C2(NS(=O)(=O)c3ccc(OCC(C)C)cc3)CCCC2)no1,-8,1.35
CC1(C)[C@@H](c2ccccc2F)CCN1CCO,-9,0.96
